The full ranking holds about 33,000 sequences; the median of “E-score (-0.5 to 0.5)” is about -0.043, and the highest 2% start at about 0.37. Some of the results follow.
biological target: T1, Upc2 (UniProt Q12151); experiment: PBM E-score (8-mer binding enrichment) (E-score (-0.5 to 0.5)); higher = stronger / more preferred TF binding; most listed sequences are background and not binding sites; details: protein concentration: 200 nM; construct: GST-full length
T1 sequence: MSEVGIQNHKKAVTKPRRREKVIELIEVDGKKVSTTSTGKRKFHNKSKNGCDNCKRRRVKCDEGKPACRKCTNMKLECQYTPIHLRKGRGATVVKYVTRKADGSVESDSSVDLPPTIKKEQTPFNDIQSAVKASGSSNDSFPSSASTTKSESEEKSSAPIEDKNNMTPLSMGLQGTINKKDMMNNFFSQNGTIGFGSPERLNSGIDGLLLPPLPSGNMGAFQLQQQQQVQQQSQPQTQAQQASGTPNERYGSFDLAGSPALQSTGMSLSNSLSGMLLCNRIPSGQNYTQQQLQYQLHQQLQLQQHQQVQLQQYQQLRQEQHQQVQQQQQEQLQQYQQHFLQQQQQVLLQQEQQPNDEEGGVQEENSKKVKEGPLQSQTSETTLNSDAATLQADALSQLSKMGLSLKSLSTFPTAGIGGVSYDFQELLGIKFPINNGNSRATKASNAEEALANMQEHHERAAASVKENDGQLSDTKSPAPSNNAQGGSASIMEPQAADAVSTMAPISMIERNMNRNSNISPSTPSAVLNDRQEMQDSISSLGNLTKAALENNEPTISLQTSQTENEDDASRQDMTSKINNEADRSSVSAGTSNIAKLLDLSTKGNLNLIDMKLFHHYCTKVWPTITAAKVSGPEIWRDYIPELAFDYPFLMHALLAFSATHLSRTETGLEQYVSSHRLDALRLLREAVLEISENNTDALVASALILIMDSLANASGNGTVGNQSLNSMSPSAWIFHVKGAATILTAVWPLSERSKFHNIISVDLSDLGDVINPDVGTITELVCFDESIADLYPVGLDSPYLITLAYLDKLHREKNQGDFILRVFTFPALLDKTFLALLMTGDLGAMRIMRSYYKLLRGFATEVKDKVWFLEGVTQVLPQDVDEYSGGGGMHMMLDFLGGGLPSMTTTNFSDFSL
Outline: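 Bound GST-tagged yeast transcription factors, applied at about 100-200 nM to double-stranded universal all-10-mer Agilent arrays, were detected with fluorescent anti-GST. Scans were normalised with masliner. A modified Wilcoxon-Mann-Whitney statistic, the E-score, was assigned to each ungapped eight-base word pooled with its reverse complement by the Universal PBM Analysis Suite.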

| Sequence | PBM E-score |
| --- | --- |
| CAACCCCA | -0.121 |
| CAGACACC | -0.222 |
| AGTTTGAT | -0.0284 |
| CTAGTCCA | -0.412 |
| CCCGACCG | 0.0852 |
| GAATCGGA | 0.0185 |
| GGCAACGA | 0.33 |
| ACGATACG | 0.391 |
| CGGTCTCC | -0.171 |
| CGAAGGGA | -0.0715 |
| CCGCGGAA | -0.0349 |
| CCCGGACC | -0.205 |
| CACCGTGC | 0.0319 |
| ATGTTCCC | -0.147 |
| AACTGCAA | -0.0876 |
| CTACGAAA | 0.272 |
| CATAAAGA | -0.0449 |
| AGCACCAC | -0.186 |
| GCCGTGCC | -0.123 |
| TCAGTACA | 0.0811 |
| AATACCGT | 0.169 |
| CTCTGACA | -0.153 |
| AGGAAAGC | -0.0443 |
| ACTAAAGT | -0.222 |
| CGACAATC | -0.0367 |

| Sequence | PBM E-score |
| --- | --- |
| CCCCGTCA | -0.218 |
| ACGTATAA | 0.437 |
| ACCCCTAG | -0.308 |
| ATTCCAGC | -0.136 |
| AGTCTTCC | -0.261 |
| CGGATGCA | -0.138 |
| GGTGAGAC | -0.278 |
| GAATTTGC | -0.0648 |
| CTTGAAGC | -0.183 |
| GAACTCAC | -0.0682 |
| ATAGGCGC | 0.0366 |
| GGTGGGTA | -0.0374 |
| CGCGACCA | 0.116 |
| CACGATTA | 0.0433 |
| ATCCTTCG | 0.186 |
| GATGGCAC | -0.112 |
| AGTCTGAC | -0.161 |
| AAAACTGA | -0.0868 |
| ATTGCGGA | -0.141 |
| CCGCAAGG | 0.0456 |
| CTAACGCA | -0.0276 |
| GAGTCCAC | -0.145 |
| ACTCGAAT | 0.0455 |
| CGTAGCGA | 0.331 |
| AGATTATA | -0.00741 |

| Sequence | PBM E-score |
| --- | --- |
| ATTCTCCG | -0.0376 |
| AAACACGA | 0.0726 |
| CACACGAG | 0.155 |
| ATTTTGTA | 0.0656 |
| TCAGCGAA | 0.0363 |
| CAGCTTCA | -0.051 |
| GCGCTACC | 0.033 |
| AAGAAGCA | -0.101 |
| TTATCAAA | 0.074 |
| TATGAACA | 0.00395 |
| GCGAGGCA | 0.195 |
| AAGACGCT | -0.145 |
| ATTTAATA | 0.0458 |
| AAATGGAA | -0.177 |
| GTGAGGTA | -0.251 |
| CAGCCACC | -0.259 |
| AGTAATAT | 0.141 |
| CTCAGACC | -0.226 |
| CACAAAAG | -0.0256 |
| CAGGGCTC | -0.149 |
| CGAGAAAA | 0.106 |
| CTAATCGC | 0.0123 |
| CTGCAATC | -0.03 |
| TAAGATGA | -0.0958 |
| ATCCGTAG | -0.00695 |

| Sequence | PBM E-score |
| --- | --- |
| GACAATAC | 0.132 |
| CCTCGACA | -0.127 |
| CTGTCAGA | -0.0794 |
| CTACAGTA | -0.16 |
| GGAAATAC | 0.126 |
| AGCGTTAC | 0.0438 |
| ATGGAGAA | -0.12 |
| AGTCCGAC | -0.177 |
| AGAACGGA | 0.0565 |
| ATATAGAC | -0.0241 |
| CACCGTAA | 0.32 |
| CCCCAGAC | -0.232 |
| ACGCAACG | 0.151 |
| AAAACTCG | 0.16 |
| TCACTGAA | 0.0417 |
| CATCTCTC | -0.069 |
| AGTCGTTC | 0.41 |
| AGATGGAT | -0.281 |
| ACTCAAAA | 0.029 |
| CACCTCGA | 0.135 |
| CCCAGGTC | -0.135 |
| ATTCTTAC | -0.0183 |
| CCTGCGCC | -0.238 |
| ATTAGAGG | -0.284 |
| AGACATCA | -0.192 |

| Sequence | PBM E-score |
| --- | --- |
| CAGGGTTA | -0.0995 |
| ACTGTCAC | -0.115 |
| AGGTGTTA | -0.101 |
| CGACGTCC | 0.13 |
| ACAATAAA | 0.0542 |
| CCCGTTAA | 0.322 |
| GCTCGAGA | -0.135 |
| ACGACGCT | 0.361 |
| ATAGCTAC | -0.0117 |
| AACATTGG | -0.329 |
| GCCGTTGA | -0.102 |
| GCTTATGA | 0.0621 |
| GTTGTACA | 0.0854 |
| GGCCATGA | -0.134 |
| AAGGGTCG | 0.126 |
| GTAGTGAC | -0.17 |
| CGCATCCA | 0.0543 |
| AGGCATTA | -0.165 |
| CATCGACG | -0.193 |
| GGCTGTAA | -0.0429 |
| CGGGGTCC | -0.0957 |
| AGATCTCA | 0.0408 |
| GCTCGATA | -0.0813 |
| GAGAACGA | 0.36 |
| AAACAACA | -0.0144 |

| Sequence | PBM E-score |
| --- | --- |
| CGATTATC | 0.0988 |
| ACGCCACC | -0.058 |
| ATAATTTG | 0.0757 |
| TCTGAAGA | -0.197 |
| TCTCTGCA | -0.139 |
| CCACATCG | 0.0288 |
| CGGGGATA | -0.039 |
| AAGTTGTA | 0.123 |
| ACACGGCC | -0.126 |
| CCAACCAA | -0.131 |
| CGCTGAGC | 0.00368 |
| CCTACGAC | 0.232 |
| TCGTAAAA | 0.481 |
| CTATGGCA | -0.119 |
| TCATGCCA | 0.0205 |
| CAGCCCTC | -0.0814 |
| AGGCGGTG | -0.0842 |
| ACTAGCCG | -0.143 |
| CCTCTGCA | -0.234 |
| TCTTTTAA | 0.264 |
| CTCTCCAA | -0.0403 |
| ATGGCACA | -0.132 |
| CCGTTGAG | -0.109 |
| AGTTGGGC | -0.0112 |
| GGTTTTTA | -0.072 |

| Sequence | PBM E-score |
| --- | --- |
| GACCGAAA | 0.0604 |
| CCGCGGGA | -0.164 |
| ACCGTAAG | 0.185 |
| AAGTCTCG | 0.141 |
| CAAAAGTA | 0.0952 |
| ACTAACTA | -0.0101 |
| CCGGAGGA | -0.267 |
| ATGGGCTA | -0.00473 |
| AGGGGAAG | -0.0649 |
| CCTGTGTC | -0.0613 |
| CGTAGTAC | 0.197 |
| GATCGGGA | -0.107 |
| CTAAATAG | -0.181 |
| AGTCAATG | -0.127 |
| AAAGGGGT | -0.194 |
| CCTACTTC | -0.114 |
| ATATACAC | 0.193 |
| AACAACGG | -0.0411 |
| CCGCTCAA | -0.155 |
| GCCTCCGA | -0.185 |
| ATCAGCGC | -0.0538 |
| AGACACTG | -0.0695 |

Reference: the supplement of paper PMC3334620
